Results as given in PubChem BioAssay AID624296 (National Center for Advancing Translational Sciences (NCATS), 2012).
Hit rate of the full screen: of about 350,000 compounds, about 9,900 (2.8%) were called active. This list was built around the results that the source calls inconclusive (neither active nor inactive); the mix of calls is not that of the screen. Calls come from the whole dose curve; as a rule, active = well fitted activation curve with a large enough effect; inconclusive = small, poorly fitted or top-dose-only effect; inactive = no such curve, though single readings can be large or run the other way. No potency is given beside an inconclusive call; the fits are too rough.

Experiment: A quantitative high throughput screen for small molecules that induce DNA re-replication in MCF 10a normal breast cells. For activity, positive = re-replication: % of control where 0% means no effect. Note: nearly all actives have a fitted effect of over 50% in size.
Details: MCF 10A DNA re-replication, Hoechst nuclear intensity, 48 h; activity, positive = re-replication: at 46.1 µM (top of the series)
Potency is the fitted concentration of half-maximal effect; tags give direction and shape of the fitted curve.

Compound	Potency	activity, positive = re-replication
Cc1onc(-c2c(F)cccc2Cl)c1C(=O)OCn1nnc2ccccc2c1=O	inconclusive [activator, partial curve]	–
O=C(COC(=O)c1ccncc1)c1ccc(Br)cc1	–	inactive: 1.26%
O=C(CN(C(=O)c1csnn1)c1cccc2c1CCCC2)NCc1ccccc1	inconclusive [activator, partial curve, poor fit]	–
COC(=O)c1ccccc1NC(=O)C1CC(=O)N(c2ccc(F)cc2)C1 (stereo not given)	–	inactive: 0.0217%
CCOC1=C(C#N)CC2(CC1)c1ccccc1-c1ccccc12	inconclusive [activator, single point]	–
Cn1c(=O)c2[nH]c(CN(Cc3ccccc3)Cc3ccccc3)nc2n(C)c1=O	–	inactive: 4.41%
CCOC(=O)C1=C(C)OC(N)=C(C#N)C1c1cc2ccccc2nc1N1CCCCC1 (stereo not given)	inconclusive [activator, partial curve, poor fit]	–
CC(C)[C@H](CO)N(Cc1cccc(F)c1)c1nc(Nc2cccc(Cl)c2)c2ncn(C(C)C)c2n1	inconclusive [activator, single point]	–
Oc1ccc(CNCC2COc3ccccc3O2)cc1 (stereo not given)	inconclusive [activator, partial curve]	–
CCOC(=O)C(C#N)(Cc1ccc2ccccc2n1)Cc1ccc2ccccc2n1	inconclusive [activator, single point]	–
C/C(=N\NC(=O)CNc1ccccc1Cl)C(C)(C)C	inconclusive [activator, single point]	–
Cc1ccc(C(=S)N2CCN(Cc3ccccc3)CC2)s1	inconclusive [activator, partial curve, poor fit]	–
Fc1ccc(-n2c(-c3ccc4c(c3)OCO4)n[nH]c2=S)cc1Cl	–	inactive: -2.87%
Nc1cc(=O)[nH]c(SCC(=O)NCCC2=CCCCC2)n1	inconclusive [activator, single point]	–
Fc1ccc(CSc2nc3ccccc3[nH]2)c2ccccc12	inconclusive [activator, single point]	–
CC1CC(C)(C)NC(=S)N1CC(=O)N1CCN(Cc2ccccc2)CC1 (stereo not given)	–	inactive: -0.511%
Clc1ccc(CO/N=C/c2c(-c3ccccc3)nc3n2CCS3)c(Cl)c1	inconclusive [activator, partial curve, poor fit]	–
Cc1csc(=O)n1CC(=O)OCc1cccc2ccccc12	inconclusive [activator, partial curve, poor fit]	–
O=C(COC(=O)CC12CC3CC(CC(C3)C1)C2)Nc1cccnc1Cl	–	inactive: 2.85%
C/C(=N\OC(=O)Nc1ccc(Cl)cc1)c1ccc(F)c(F)c1	inconclusive [activator, full curve, poor fit]	–
Cc1ccnc(Nc2nc(-c3ccc(Cl)cc3)cs2)c1	inconclusive [activator, partial curve, poor fit]	–
O=S(=O)(c1ccc(-c2ccccc2)cc1)N1CCCCC1	inconclusive [activator, single point]	–

Compound	Potency	activity, positive = re-replication
COc1cc(CNC(C)(C)CO)cc(Br)c1OCc1ccc(Cl)cc1	inconclusive [activator, single point]	–
c1ccc2c(c1)nc(N1CCCCCC1)c1ccccc12	inconclusive [activator, single point]	–
COc1cccc(/C=N/Nc2ccc(S(=O)(=O)Nc3ccccc3C(=O)O)cc2[N+](=O)[O-])c1O	inconclusive [activator, single point]	–
O=C(NN=Cc1ccc(OC(F)F)cc1)c1ccc(NS(=O)(=O)c2cccs2)cc1	–	inactive: 14.2%
COc1ccc([C@H]2[C@H](C(=O)OC(C)(C)C)N3N=Cc4ccccc4C3C23C(=O)c2ccccc2C3=O)cc1OC (stereo not given in full)	–	inactive: 3.22%
O=C1N(c2cccc(Cl)c2)C(c2ccccc2)N2CCCN12 (stereo not given)	–	inactive: 8.55%
CC(C)(C)S(=O)(=O)c1nc2ccccc2s1	–	inactive: 18.8%
O=C(Nc1cccnc1)c1cc(-c2ccccc2O)on1	inconclusive [activator, single point]	–
CCOC(=O)c1c(NC(=O)CSc2nnc(-c3ccc(C)cc3)o2)sc(C(C)=O)c1C	inconclusive [activator, single point]	–
CCCCn1c(N)c(N(CC(C)C)C(=O)C2CC(=O)N(Cc3ccccc3)C2)c(=O)[nH]c1=O (stereo not given)	–	inactive: -0.232%
CCCC(=O)Nc1cccc(NC(=O)c2ccc3c(c2)OCCO3)c1	inconclusive [activator, full curve, poor fit]	–
Cc1ccc(S(=O)(=O)NC2CCCCC2)c(C)c1NS(C)(=O)=O	inconclusive [activator, partial curve, poor fit]	–
O=C(NCCOc1ccccc1)c1ccc2c(c1)S(=O)(=O)c1cc(Cl)ccc1C2=O	inconclusive [activator, partial curve, poor fit]	–
C#Cc1ccc([C@@H]2C=C(C(=O)NCc3ccccc3)O[C@H](OCC)[C@H]2CCCO)cc1	inconclusive [activator, partial curve, poor fit]	–
COc1ccc(-c2nnc(NC(=O)c3ccccc3C)o2)cc1	–	inactive: 1.19%
CC(C)[C@H](NS(=O)(=O)c1ccc2c(c1)OCCO2)C(=O)OCC(=O)Nc1cc(Cl)ccc1Cl	inconclusive [activator, partial curve, poor fit]	–
CCOc1cc(/C=C/C(=O)Nc2ccc(C(=O)NCCN(CC)CC)cc2)ccc1OCC(C)C	inconclusive [activator, partial curve, poor fit]	–
CC1=Nc2cc(C(=O)NCCCN3CCOCC3)ccc2Sc2c(C)ccc(C)c21	inconclusive [activator, partial curve]	–
CC(C)(C)c1cc(C(=O)C[n+]2ccc(C(=O)NCCCO)cc2)cc(C(C)(C)C)c1O	inconclusive [activator, single point]	–
CSc1ncccc1C(=O)OCC(=O)c1ccc(S(=O)(=O)N2CCCCC2)cc1	–	inactive: 3.89%
O=S(=O)(Cc1cc(N2CCOCC2)nc(-c2ccccn2)n1)c1ccccc1	inconclusive [activator, partial curve, poor fit]	–
O=C(COc1ccc(Cl)cc1Cl)N(c1ccccn1)C1CCCCC1	inconclusive [activator, partial curve, poor fit]	–

Compound	Potency	activity, positive = re-replication
COc1cccc(OC)c1NC(=O)CN1CCN(C)CC1	inconclusive [activator, single point]	–
CCOC(=O)C1(CCOc2ccccc2)CCN(Cc2ccc3nonc3c2)CC1	inconclusive [activator, partial curve, poor fit]	–
O=C(Nc1cccc([N+](=O)[O-])c1)c1ccc2c(c1)C(=O)N(c1ccccn1)C2=O	–	inconclusive: -32.5% [activator]
O=C(CSc1ncnc2c1cnn2CCc1ccccc1)Nc1cccc(C(F)(F)F)c1	inconclusive [activator, partial curve]	–
O=C(OCc1ccc(F)cc1)c1cc2ccccc2cc1O	inconclusive [activator, single point]	–
Cc1ccc(CN2CCN(CC(=O)N=Nc3c(O)[nH]c4ccccc34)CC2)cc1	inconclusive [activator, partial curve, poor fit]	–
NS(=O)(=O)c1ccc(NC(=S)N2CCN(c3cccc(Cl)c3)CC2)cc1	inconclusive [activator, partial curve]	–
C/C(CC(=O)Nc1cc(Cl)ccc1Cl)=N\NC(=O)c1ccco1	inconclusive [activator, single point]	–
CCc1ccc(NC(=O)COC(=O)C2(c3ccc(Cl)cc3)CCCC2)cc1	–	inactive: 14.1%
CCN(CC)c1ccc(NC(=O)c2cc3ccccc3o2)c(C)c1	inconclusive [activator, single point]	–
COc1cc(CNC(=O)c2cccc(COc3ccc(Cl)cc3)c2)cc(OC)c1	–	inactive: 28.2%
CCC(Sc1ncccc1C(=O)OC(C)C)C(=O)NCc1ccco1 (stereo not given)	inconclusive [activator, single point]	–
CC(=O)Nc1c([N+](=O)[O-])cc2[nH]c(=O)[nH]c2c1[N+](=O)[O-]	inconclusive [activator, partial curve, poor fit]	–
CC(C)(C)OC(=O)N[C@@H](Cc1ccccc1)c1nnc(SCC(=O)c2ccc(Cl)cc2)o1	inconclusive [activator, partial curve, poor fit]	–
C/C(CCN1CCc2nc(-c3ccccc3)c(-c3ccccc3)cc2C1)=N\OC[C@@H](C)[C@H](OCc1ccccc1)C(C)C	inconclusive [activator, single point]	–
Cc1ccc(CCNC(=O)CCSCc2ccc(Cl)cc2)cc1	–	inactive: 0.965%
COc1ccc(/C(C)=N/NC(=O)c2nnn(-c3nonc3N)c2CN(C)c2ccccc2)cc1	–	inactive: 3.67%
CC1(C)S[C@H]2C(NC(=O)[C@@H](N)c3ccc(O)cc3)C(=O)N2[C@@H]1C(=O)O (stereo not given in full)	–	inactive: 7.56%
CC(C)(C)C(=O)N1CCN(c2ccc(NC(=O)c3ccc4c(c3)OCCO4)cc2)CC1	inconclusive [activator, single point]	–
CC(C)N(C(=S)NCc1ccccc1)c1ccccc1	inconclusive [activator, single point]	–
CCc1cc(C(=O)Cc2cnn(-c3ccccc3)c2)c(O)cc1O	inconclusive [activator, partial curve, poor fit]	–
